Measurements from the RNAGym collection of RNA variant scans (doi:10.7554/elife.90254).
Read counts are not given, so values of variants with three or more changes are uncertain.

B1: LINE1-full (parent)
chain: UACGUAGGUGGUUUUCCCCUGAUAGUGCUAAGGGGGCCUGGAAGUUUGGACUGGGCAGAGCUCAACACAGCGUGGCAAAGUGGCUGUGGCUAGACUGCCUCUCUGGAUUCCUCGUCACUCAGCAGGGCAUCUCUGAGAGAAAUGCC

Variants of: B1
Assay: self-cleavage, relative activity (ratio to wild type); higher = more cleavage; in vitro, sequencing; the parent is a self-cleaving ribozyme

Variant	self-cleavage
U1A U26A A57G U96A	0.13
U14C U52G C99U U115C	1.84
A57U G97A A107U	0.01
G10U U13A U108C U115C	1.72
A64G U108G U112C A138G	0
A42U A107G A140G	1.27
U13C U47A A65U U91C	0
A2G U39A A43C A79G	1.84
G11U A69G A78G	0.47
A31U U87A A136G	0.15
U14C U39G U47C U134G	0.66
U47C U115C C128U	1.84
A24G U62C U134C	0.08
A67G U73A U104A A107G	0.81
U9C A43G A69U	0
U13G A30U A107G	0.77
U12A U26A U81A U102C	1.49
U13C U96C A107G	0.86
A50G U81A U87C	0
U5C A107G A117U	1.21
A31G G88U U96A	0.08
A43G A65G U109C	0.18
C28U U46C U100A U104C	0.69
G54A A77G A79U	1.17

Variant	self-cleavage
A6G U39C U87G U100A U130C	0
U52C A77G U109A A140G A142G	2.03
U1C U5A U62C U130C	0.41
C28U U96A U100C U109A C113U	0.04
A69U U112C A141G	0
U62C U100A A124U	0.18
U23C G48A U112C	0.98
U5C A67G A92G	0
U52A C98U A107G	0.12
A42U U52C U115C	1.49
U13G A22G U112C A117G	2.3
A42U U47A U85A	0.01
U45A A57G A64G	0.23
G34A A42G U130G A138G	2.15
U14C A59U A64G A92G U119A A136U	0
A69G A78U C131U	0.61
G55U G58U U100C A140G	0
U12C U15A U87A A138G	0.14
C90A A92G U134C	0.06
U23C A69U A78U	0.13
U20C A24G C56A A117U	0.2
U46C U62A U132A	0.01
U52A A57U U81C	0.1
U26C U104C A140G U143A	1.13

Variant	self-cleavage
G75A U109C U143A	0.63
U26C A77G A107U	0.38
U20A G127A G135A	1.9
C17A U46C A142G	0.71
G7A U26A U47C U87A U104C	0.11
U14C U26C U132C	1.1
U96G A117G U143C	0
U15A U39C G82A	0.91
U15C A77G U102C A129U U134A U143A	1.67
U46C A65G A142G	0.05
U47G U130C U134C	2.06
U46G U87C A94U	0.11
U13A A22U U108C A140U	0.66
U12C U20C C120U	0.53
U47C A79C A117C	2
C28G C76U A136G	1.92
C61A C63A A65U A94G A124G G125A	0
A31G A59G U143A	0
U13A U46C A129U	1.87
U46C A65G A121G	0
G106A A117G A141G	1.22
A22G C37A U52A	0
U46A A64U A141G A142G	0.28
U13C U14C U39A U62C U112C A138G	0

Variant	self-cleavage
G34A U45C A67G C84U U100A	0
U26A U62G A124G A129U	0.15
A2G A6U A67U G93A G126A	0.08
A6G G33C A64C A67G G127U A138G	0
U87A U132C A141G	0.06
U46A U108C A141G	1.54
U23C A43U C76G A140G	1.31
U46G A67G A78G A140G	0.71
A22G U45C A77G	1.02
U13C G32U U46C A69G G122A	0.92
A79U A107G G122A	2.34
U13C U39C G114A	0
A24U C28G A69U U81C A94U U130A A138G	0.32
C71U U87A C99U	0.01
A64U G88A U115C C131A U132C	0.04
U73C A77G U87A	0.19
A24C A69G U91A	0.27
C56A A57G A78G G89A	0.04
G7U U29C A42G U143C	1.33
U12A U20A U45G C84A C101A	0.11
A31U G35A A57G A78G A136G	0.77
U26C U102A A140G	1.35
U9C C76A A79G	1.18
C3U A67G A77G	0

Variant	self-cleavage
U1C U47A U85C	0.05
G21U U39A U96C C99U	0.07
U96C U134C A141G	0.03
G7A U39C G88A U102C	0
U1C A43G A57G A77U U115A	0.63
U9A C66U A121G A140G	0.1
A42G U52C C128U	1.94
U13A U39C C101U U115C	0.63
A65G A69G G106U C133U	0.11
U5C U39C G72A A94G	0.2
C19U U73A A94G U108C A138G	0.28
G10A A30U A138U	1.74
U73A U91A U130C	0.7
U5C A50U A59U U119C G122A	1.17
U13C G53U U73C A107G	0
U39A A78G U132C U134A A140G	0.18
U23A A43G U45G	1.37
U46C A77C A141G	1.1
U45C U100A C111U U132A	0.77
U1C A65G A124U C133A	0.05
U5C A31G U119A	1.02
A79G U112C A138G	1.41
A57G A77G A124G A136G U143C	1.02
A30G A31G C118U A121G	0.48

Variant	self-cleavage
A59G A67U G82A U91C C113U	0
A67G U85A U134A	0
U9A U13C A42G U87A	0.17
U20A A65G G89A A142G	0.03
U9C U13A A69G U104C	0
U12C C38A A57U	0.28
U15C U46C A117U A142G	1.98
U15C A43U A65U U109A U130A A138G	0.49
G27A A30U U45C U81C U112A	0.92
U39A A69U A94G U108C A136G	0.18
U39G U45C U108C	1.84
U5A A92U U109G C116U U132C G135U	0.32
G36U U46C A64U	0.43
C3U U14C G34A C38U U45C U73A	1.04
U9A U13C U85C G114A U119C G126U	0.07
U20C G27A U104C	0.98
U45G U87A A124C	0.08
G34C U130A A136G	1.16
G4A A22G A43G U87A	0.19
U20C U39A U109C A140U A142G	2.51
U47A U130C C145U	2.16
A78G A79G U91A	1.06
A79U U81A U85C U115A	0.3
U15C A22G A94G	0.18

Variant	self-cleavage
A22G A43G U73C U81G G126C U143C	1.15
U14C U112C C120U	1.77
C19A A50G A94U U115C A136U	0.41
U45C U104A U130C	1.72
G25U A57G A138G	0.91
U91C U119C A138U U143C	1.31
A6U U14A A107G U112A	0.26
U85A C95U A121G	0.13
A57G A138G A140G	1.58
U9C G33U U47C G72A	1.45
U14C A57G U87A A94G	0.46
U46C C90A U96C	0.01
A64U A142G U143A	0.47
G25A C95U U100G U119A A138G	0
A79G A117G A141G	0
U12C U29C U87C	0
U39G U85C U143A	0.34
U15A U91C U143A	0.69
A2G U29C U39C A64U U132A	0.38
A57G G72A U91C U119C A124G A138G	0.41
U26C U119A A142U	0.32
A2G U104G A141G	1.15
U26A A30U U73A	0.7
